The whole screen tested about 310,000 compounds, of which about 14,000 (4.5%) showed an effect of 50% or more. The effect is printed as a negative number. The list shows a part of the results.
target: human ether-à-go-go-related gene (hERG) potassium channel (human, UniProt Q12809); experiment: primary screen, population patch clamp on CHO cells stably expressing hERG
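Further: peak tail current of the secondary pulse compared with the same well before compound.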

Chain of human ether-à-go-go-related gene (hERG) potassium channel (Q12809 whole entry, looked up): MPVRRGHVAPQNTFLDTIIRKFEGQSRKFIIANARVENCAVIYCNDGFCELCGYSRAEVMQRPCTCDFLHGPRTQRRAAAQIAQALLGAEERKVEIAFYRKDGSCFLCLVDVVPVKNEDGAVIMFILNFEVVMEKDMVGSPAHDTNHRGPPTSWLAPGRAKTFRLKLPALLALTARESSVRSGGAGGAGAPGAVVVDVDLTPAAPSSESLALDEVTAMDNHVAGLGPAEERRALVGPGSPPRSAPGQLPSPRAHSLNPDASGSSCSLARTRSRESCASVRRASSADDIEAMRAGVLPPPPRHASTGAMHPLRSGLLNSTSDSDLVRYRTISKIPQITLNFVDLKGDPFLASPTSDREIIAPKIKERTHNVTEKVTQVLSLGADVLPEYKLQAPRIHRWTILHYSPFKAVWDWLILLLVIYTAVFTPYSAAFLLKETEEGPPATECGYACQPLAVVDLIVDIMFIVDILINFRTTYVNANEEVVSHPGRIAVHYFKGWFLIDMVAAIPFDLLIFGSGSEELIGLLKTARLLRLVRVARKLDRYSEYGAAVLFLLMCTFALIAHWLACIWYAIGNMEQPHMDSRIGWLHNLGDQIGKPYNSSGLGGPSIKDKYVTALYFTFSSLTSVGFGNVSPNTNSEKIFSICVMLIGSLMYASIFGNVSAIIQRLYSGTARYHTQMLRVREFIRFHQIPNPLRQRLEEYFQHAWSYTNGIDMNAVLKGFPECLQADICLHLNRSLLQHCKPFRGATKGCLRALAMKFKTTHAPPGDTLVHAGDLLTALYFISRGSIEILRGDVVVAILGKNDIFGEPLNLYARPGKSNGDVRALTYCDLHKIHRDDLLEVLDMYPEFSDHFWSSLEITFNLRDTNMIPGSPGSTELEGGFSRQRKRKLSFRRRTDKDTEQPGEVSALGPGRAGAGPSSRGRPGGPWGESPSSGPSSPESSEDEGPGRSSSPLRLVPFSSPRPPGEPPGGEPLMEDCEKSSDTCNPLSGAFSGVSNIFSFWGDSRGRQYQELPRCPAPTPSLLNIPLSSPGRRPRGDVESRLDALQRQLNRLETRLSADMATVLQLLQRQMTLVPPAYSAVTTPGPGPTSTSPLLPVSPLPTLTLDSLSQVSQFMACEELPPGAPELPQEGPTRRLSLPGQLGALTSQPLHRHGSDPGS

Row | SMILES | hERG current change (%, negative = inhibition) at 10uM [%]
1 | Cc1ccc(CN2CCN(C3CCC3)CC2CCO)cc1 (centres unmarked) | 1.93
2 | O=C1NC(c2ccc(F)cc2)Oc2ccccc21 (centres unmarked) | -1.89
3 | O=C1N=C(N2CCc3ccccc3C2)S/C1=C\c1cccc(O)c1 | -6.98
4 | COc1ccc(CNC(=O)C2CCN(S(=O)(=O)c3ccc(-c4nn[nH]n4)cc3)CC2)cc1 | -2.06
5 | O=C(O)C1CC1c1ccc(Br)cc1 (centres unmarked) | 0.418
6 | CC(=O)c1ccc(NC(=S)Nc2cccc3ccccc23)cc1 | -4.66
7 | CC(C)[C@H](CO)Nc1nc(Nc2ccc(Cl)c(C(=O)O)c2)c2ncn(C(C)C)c2n1 | 16.3
8 | O=C(Nc1nc(-c2cccs2)cs1)C1=COCCO1 | -15.9
9 | O=C(OCC(=O)N1CCN(c2ccccc2)CC1)c1nc(Cl)ccc1Cl | -14.3
10 | Cn1c(N/N=C/c2c[nH]c3ccccc23)nc2ccccc21 | -46.7
11 | Cc1nc2ccccc2c(=O)n1NC(=O)c1ccc(C(C)(C)C)cc1 | 2.15
12 | C#CCOCCOCCOCCNc1nc(N2CCN(C(=O)[C@H](CCCCN)n3cc([C@@H](N)C(C)CC)nn3)CC2)nc(N2CCN(C(=O)[C@H](CCCCN)n3cc([C@@H](N)CO)nn3)CC2)n1.Cl (some centres unmarked) | 14.3
13 | CN(C)/C=N/c1c(C#N)cnn1C | 21.3
14 | O=C(CSc1ccc(Br)cc1)NCC(c1ccco1)N1CCCCC1 (centres unmarked) | -42.8
15 | O=C(O)C(c1ccccc1)C1(O)CCCCC1 (centres unmarked) | 22.7
16 | Cc1ccc(SCc2cc(=O)n(C)[nH]2)cc1 | 20.3
17 | Cc1cc(C)n(-c2c(F)c(F)c(COC(=O)c3ccccc3)c(F)c2F)n1 | 5.11
18 | Cc1nonc1CN(C)C(=O)CC1C(=O)NCCN1Cc1ccc(F)c(F)c1 (centres unmarked) | 15
19 | COc1ccc(Nc2nc(N)nc(CSC(=S)N3CCCCC3C)n2)cc1 (centres unmarked) | 0.572
20 | COc1ccc(-c2cc(C(F)(F)F)n3ncc(C(=O)N4CCc5ccccc5C4)c3n2)cc1 | 5.27
21 | Cc1cc(C(F)(F)F)c(C#N)c(SCC(=O)Nc2nc3cc(Br)ccc3s2)n1 | -9.88
22 | CC(=O)c1c(C)[nH]c(C(=O)Nc2cccc(S(=O)(=O)N3CCOCC3)c2)c1C | 0.822

Row | SMILES | hERG current change (%, negative = inhibition) at 10uM [%]
23 | Cc1oc(C)c(C(=O)O)c1COc1ccc(C(=O)O)cc1 | 4.8
24 | Cc1ccc(-c2nnc(N3CCOCC3)c3ccccc23)cc1S(=O)(=O)NCC1CCCO1 (centres unmarked) | -17.9
25 | Cc1cc(NC(=O)CSc2nnnn2-c2ccc(C(C)C)cc2)no1 | 0.634
26 | COc1cc(C)ccc1OCCOCCOc1ccc([N+](=O)[O-])cc1 | -54.8
27 | CCNc1nc(-c2ccc(OC(F)F)cc2)c(C)s1 | 15.1
28 | COc1ccc(C(=O)CSc2nnc(CNc3ccc(F)cc3)o2)cc1 | 12.2
29 | CCOC(=O)c1c(NC(=O)CSc2nnc(C)o2)sc(C)c1C | -24.8
30 | O=C(O)C1CN2CCC1CC2 (centres unmarked) | -2.72
31 | COc1ccc(N(CC(=O)N2CCN(c3ccccc3)CC2)S(=O)(=O)c2c(C)noc2C)cc1 | -2.81
32 | C/C(=N\Nc1nc(N)cc(Cl)n1)c1ccc(Cl)c(Cl)c1 | 2.57
33 | O=C(O)CC(c1cccc(O)c1)N1Cc2ccccc2C1=O (centres unmarked) | 15.3
34 | COc1ccc(N/N=C2/CCCCC2=O)cc1 | 12.1
35 | COc1ccc(S(=O)(=O)N2CCC(C(=O)NCCc3c[nH]c4ccccc34)CC2)cc1 | 3.93
36 | CC(C)COC(=O)CNc1n[nH]c(=S)[nH]c1=O | 6.56
37 | COc1ccc(NC(=O)CN2C(=O)NC3(CCCC3)C2=O)cc1Cl | -1.67
38 | O=C(Nc1cccc(C(=O)N2CCCCCC2)c1)c1ccco1 | -14.5
39 | O=C(NC1CCN(Cc2ccccc2)CC1)C1CCCN(c2nnc(-n3cccc3)s2)C1 (centres unmarked) | -69.8
40 | O=C1CN(C(=O)CC2C(=O)NCCN2Cc2ccccc2C(F)(F)F)CCN1 (centres unmarked) | 13.5
41 | CCOC(=O)c1cnc2nc(C)[nH]n2c1=O | 8.85
42 | CCOc1ccc(NC(=O)NCc2ccc3c(c2)OCO3)cc1 | 9.08
43 | O=C(CSc1ncccn1)N1CCN(C(=O)CSc2ncccn2)CC1 | -8.69
44 | O=C(c1cn(-c2ccccc2)nc1-c1cccnc1)N1CCCC(C(F)(F)F)C1 (centres unmarked) | -14.1

— article PMC4336329 (PLoS ONE, 2015)
